Results: PubChem BioAssay AID588591 (National Center for Advancing Translational Sciences (NCATS), 2011)
Hit rate of the full screen: of about 390,000 compounds, about 4,700 (1.2%) were called active. Inconclusive results, whose numbers are uncertain, are shown with a selection of clear calls. Calls come from the whole dose curve; as a rule, active = well fitted inhibition curve with a large enough effect; inconclusive = small, poorly fitted or top-dose-only effect, or another doubt; inactive = no such curve, though single readings can be large or run the other way. Where the call is inconclusive, the potency comes from a doubtful curve fit.

Each compound was assayed against DNA polymerase eta (Homo sapiens) (UniProt Q9Y253) (assay: qHTS for Inhibitors of Polymerase Eta). Details: recombinant Pol eta, fluorescent DNA replication assay; series mostly up to 114 µM.
Chain of UniProt Q9Y253 (Q9Y253 whole entry, looked up): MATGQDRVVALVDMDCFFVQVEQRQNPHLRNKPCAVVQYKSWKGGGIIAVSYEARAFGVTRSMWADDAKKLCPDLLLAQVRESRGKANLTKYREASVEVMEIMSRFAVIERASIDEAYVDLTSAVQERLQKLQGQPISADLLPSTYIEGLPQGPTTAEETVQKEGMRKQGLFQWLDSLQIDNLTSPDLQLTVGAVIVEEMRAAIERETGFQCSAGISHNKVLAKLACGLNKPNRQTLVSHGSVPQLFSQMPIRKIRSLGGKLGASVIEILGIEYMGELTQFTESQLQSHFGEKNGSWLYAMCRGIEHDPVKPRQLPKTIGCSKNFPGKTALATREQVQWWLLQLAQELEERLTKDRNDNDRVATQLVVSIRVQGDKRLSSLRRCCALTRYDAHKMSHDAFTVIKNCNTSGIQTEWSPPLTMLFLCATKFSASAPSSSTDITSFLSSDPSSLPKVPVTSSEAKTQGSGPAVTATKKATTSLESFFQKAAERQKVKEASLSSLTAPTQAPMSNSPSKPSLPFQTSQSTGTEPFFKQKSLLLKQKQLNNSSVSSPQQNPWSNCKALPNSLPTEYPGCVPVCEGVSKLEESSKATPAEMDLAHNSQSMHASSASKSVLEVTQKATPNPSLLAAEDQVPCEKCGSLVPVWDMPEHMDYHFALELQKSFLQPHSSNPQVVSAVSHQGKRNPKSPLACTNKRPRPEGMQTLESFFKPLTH
Outline: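 Pol eta at 10 nM preincubated with compounds 15 min at room temperature; reaction started with fluorescent substrate (50 nM final) and read kinetically at 0 and 10 min.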
Potency is the fitted concentration of half-maximal effect; tags give direction and shape of the fitted curve.

| Structure (SMILES) | Potency |
| --- | --- |
| CC(C)Sc1cc(N2CCOCC2)nc(-c2ccccc2)n1 | inconclusive: 79.4 µM [inhibitor, partial curve, poor fit] |
| O=C(N/N=C/c1ccc[nH]1)c1ccc(COc2cccc3cccnc23)cc1 | inactive |
| CC(=O)Nc1ccc(NC(=O)c2cc(=O)c3ccccc3o2)cc1 | inconclusive: 100 µM [inhibitor, partial curve, poor fit] |
| N#CC(Cc1ccc(O)c(O)c1)C(=O)N1CCc2ccccc21 (stereo unspecified) | active: 7.94 µM |
| C=CC[C@H](CC(=O)N(CCO)Cc1ccccc1)C(=O)N[C@@H](C)COC(=O)[C@@H](CC=C)Cc1ccc(F)cc1 | inconclusive: 79.4 µM [inhibitor, partial curve, poor fit] |
| COc1ccccc1N1CCN(c2nc3ccccc3n3cnnc23)CC1 | inconclusive: 100 µM [inhibitor, partial curve, poor fit] |
| CC(Oc1ccc(Cl)cc1)c1ccnn1S(C)(=O)=O (stereo unspecified) | inconclusive: 12.6 µM [inhibitor, partial curve, poor fit] |
| O=C1C(=O)c2ccccc2C(O)=C1CCCCl | inconclusive: 89.1 µM [inhibitor, single point] |
| O=c1[nH]n2c(=O)c3c([nH]c2c1N=Nc1cccc(Cl)c1)CCC3 | active: 20 µM |
| COc1cc(N(C)C)ccc1C=c1c2ccccc2n2c1cc(-c1ccccc1)[n+]2C | active: 22.4 µM |
| Cc1ccc(N=C2NC(=O)/C(=C\c3ccsc3)S2)c(C)c1 | inconclusive: 25.1 µM [inhibitor, partial curve, poor fit] |
| CN=C(Nc1cc(Cl)ccc1Cl)SC1CC(=O)N(c2ccc(C(=O)OC)cc2)C1=O (stereo unspecified) | inconclusive: 50.1 µM [inhibitor, partial curve, poor fit] |
| CCOc1ccc(CCNC(=O)CCOc2cc(C)ccc2C)cc1OCC | inconclusive: 79.4 µM [inhibitor, partial curve, poor fit] |
| COc1ccc(-c2[nH]c3ccccc3c2SCCNC(=O)c2ccc(S(=O)(=O)N(C)C)cc2)cc1 | inconclusive: 100 µM [inhibitor, partial curve, poor fit] |
| CC(=O)Nc1ccc(OC(F)(F)C(F)F)c(NC(C)=O)c1 | inactive |
| COc1ccc(C(=S)N2CCOCC2)cc1OC(=O)c1cc([N+](=O)[O-])c(C)c([N+](=O)[O-])c1 | inconclusive: 28.2 µM [inhibitor, single point] |
| Cc1cccc(NC(=O)CSc2nc(=O)n(Cc3ccccn3)c3c2CCC3)c1C | inactive |
| CC(C)c1ccc(C(=O)CN2C(=O)NC3(CCc4ccccc43)C2=O)cc1 (stereo unspecified) | inactive |
| CS(=O)(=O)c1ccc2c(c1)SC1=NC(=O)/C(=C/c3ccco3)C(=N)N12 | active: 3.16 µM |
| Cc1ccc(S(=O)(=O)Oc2ccc(/C=N/NC(=O)c3nn(C)cc3[N+](=O)[O-])cc2)cc1 | inconclusive: 89.1 µM [inhibitor, partial curve, poor fit] |
| Cc1cccc(C(=O)Nc2ccc3oc(-c4ccncc4)nc3c2)c1 | inactive |
| COc1ccc(OCC(=O)Nc2cc(-c3nn(C)c(=O)c4ccccc34)ccc2OC)cc1 | inconclusive: 10 µM [inhibitor, full curve, poor fit] |
| O=[N+]([O-])c1cc(/C=N\Nc2nc(-c3ccccc3)cs2)ccc1O | active: 79.4 µM |
| c1ccc2nc3c(nc2c1)c1ccccc1n3CCN1CCOCC1 | inactive |

| Structure (SMILES) | Potency |
| --- | --- |
| CCCOc1ccc(C2c3c(oc4ccccc4c3=O)C(=O)N2c2nc(C)c(C(=O)OCC)s2)cc1 (stereo unspecified) | inactive |
| C/C(=N\OCC(=O)OC(C)C(=O)Nc1ccc(C)c(S(=O)(=O)N2CCOCC2)c1)c1ccc2c(c1)OCO2 (stereo unspecified) | active: 56.2 µM |
| O=c1[nH]c(/C=C/c2cccc([N+](=O)[O-])c2)c([N+](=O)[O-])c(=O)[nH]1 | active: 25.1 µM |
| CC(C)[C@H](NC(=O)OCc1ccccc1)C(=O)OCC(=O)NCc1ccco1 | active: 50.1 µM |
| CCN(CC(=O)Nc1ccccc1C(F)(F)F)C(=O)CCc1nc2sc3c(c2c(=O)[nH]1)CCCC3 | active: 15.8 µM |
| Nn1c(-c2ccccc2)nc2cc(Cl)ccc2c1=O | inconclusive: 89.1 µM [inhibitor, single point] |
| CC(C)c1ccc(NC(=O)CCC(=O)NCc2ccco2)cc1 | inactive |
| Nc1cc(S(=O)(=O)O)cc([N+](=O)[O-])c1O | active: 4.47 µM |
| CC(NC(=O)COC(=O)/C=C/c1ccco1)c1ccccc1 (stereo unspecified) | inconclusive: 79.4 µM [inhibitor, partial curve] |
| N#Cc1ccsc1NC(=O)CSc1nnnn1-c1ccc(O)cc1 | active: 50.1 µM |
| C=CCn1c(SCC(=O)c2ccc(O)c(O)c2)nnc1-c1cccc(C)c1 | active: 15.8 µM |
| Cc1cccc(NC(=O)CSc2nc3c(oc4ccccc43)c(=O)n2-c2ccc(F)cc2)c1 | inactive |
| Nc1ccccc1SC(CC(=O)c1ccccc1)c1ccc([N+](=O)[O-])cc1 (stereo unspecified) | inactive |
| C[C@@H]1CN(S(=O)(=O)C(C)(C)C)[C@H](CCO)/C1=C\c1ccccc1 | inactive |
| O=C(CN(CCc1ccccc1)C(=O)c1csnn1)NCc1ccc(F)cc1 | inconclusive: 35.5 µM [inhibitor, partial curve] |
| O=c1[nH]cnc2c1sc1nc3c(c(-c4ccc(Cl)cc4)c12)CCC3 | inconclusive: 25.1 µM [inhibitor, partial curve, poor fit] |
| CCS(=O)(=O)N1Cc2ccccc2CC1C(=O)OCC(=O)Nc1ccc(C)cc1 (stereo unspecified) | inconclusive: 31.6 µM [inhibitor, partial curve, poor fit] |
| O=C(Cc1cccc2ccccc12)N/N=C/c1ccc(OC(=O)/C=C/c2ccco2)cc1 | inconclusive: 15.8 µM [inhibitor, partial curve, poor fit] |
| Cc1ccc(-n2nc3c(N4CCCC(C(=O)NCCc5ccccc5)C4)nnc(C)c3c2C)cc1 (stereo unspecified) | inactive |
| Cc1ccc(-n2nnc3c(SCC(=O)NCc4ccco4)ncnc32)cc1 | inconclusive: 35.5 µM [inhibitor, partial curve, poor fit] |
| O=C(/C=C/c1ccco1)NCC1OCCc2ccccc21 (stereo unspecified) | active: 12.6 µM |
| COc1ccc2c(c1)c(/C=N/Nc1ccc(C(=O)O)cc1)c(C)n2C | inconclusive: 50.1 µM [inhibitor, partial curve, poor fit] |
| Cn1c(/C=C/c2ccc(Cl)cc2)c([N+](=O)[O-])c(=O)n(C)c1=O | inconclusive: 79.4 µM [inhibitor, partial curve] |
| O=C(O)c1ccc(N/N=C/c2ccc(F)c(F)c2)cc1 | inconclusive: 25.1 µM [inhibitor, single point] |

| Structure (SMILES) | Potency |
| --- | --- |
| CC1=C(C(=O)Nc2ccc(C)cc2C)C(c2ccc(Cl)cc2)n2nc(C(=O)OC(C)C)nc2N1 (stereo unspecified) | inconclusive: 20 µM [inhibitor, partial curve, poor fit] |
| COc1ccc2nc(Cl)c(C3CC(c4ccco4)=NN3C(=O)CCCC(=O)O)cc2c1 (stereo unspecified) | active: 35.5 µM |
| CCCC1CCC(=NNS(=O)(=O)c2ccc(C)c([N+](=O)[O-])c2)CC1 (stereo unspecified) | inconclusive: 79.4 µM [inhibitor, partial curve, poor fit] |
| CN1C(=O)Cc2cc(S(=O)(=O)CCC(=O)Nc3ccccc3)ccc21 | inactive |
| C=C(C)C1CCC2(C(=O)O)CCC3(C)C(CCC4C5(C)C(C=O)C(O)C(C)(C)C5CCC43C)C12 (stereo unspecified) | active: 79.4 µM |
| CCCSCCCNC(=O)CN1C(=O)COc2ccc(S(=O)(=O)N3CCC(C)CC3)cc21 | inactive |
| CCOc1nc(-c2ccccc2)ccc1-c1noc(-c2ccncc2)n1 | inconclusive: 1.41 µM [inhibitor, partial curve, poor fit] |
| O=C(CCCOC(=O)c1ccc(O)cc1O)c1ccc(F)cc1 | inconclusive: 31.6 µM [inhibitor, partial curve, poor fit] |
| Cc1ccccc1Nc1nc(Cl)c(C=O)s1 | inactive |
| O=C(CCn1cnc2ccccc2c1=O)NCc1ccccc1 | inconclusive: 89.1 µM [inhibitor, single point] |
| O=C1NN(c2ccccc2)C(=O)/C1=C\c1coc2ccc(O)cc2c1=O | inconclusive: 56.2 µM [inhibitor, partial curve, poor fit] |
| Cn1c(SCC(=O)Nc2sccc2C#N)nnc1-c1ccccc1 | inconclusive: 14.1 µM [inhibitor, full curve, poor fit] |
| O=C(Oc1c(CN2CCOCC2)cc(Cl)c2cccnc12)c1ccccc1 | inactive |
| Cc1cc(C)c2oc(-c3cccc(NC(=O)c4ccco4)c3)nc2c1 | inactive |
| CCCc1nc2sc3c(SCC(=O)NCc4ccco4)ncnc3c2c2c1CCC2 | active: 14.1 µM |
| CCCNC(=O)c1ccc2c(=O)c(O)c(-c3ccc(C)cc3)[nH]c2c1 | inactive |
| Cc1ccc(S(=O)(=O)Nc2ccc3cc([N+](=O)[O-])ccc3c2[N+](=O)[O-])cc1 | active: 79.4 µM |
| Clc1ccc2c(N/N=C/c3ccc(Br)cc3)ccnc2c1 | inactive |
| Cc1cc(O)c(C(C)C)cc1N=Cc1ccccc1O | inactive |
| CCOC(CN=c1nc(N(C)C)ss1)OCC | inactive |
| O=C(COC(=O)Cn1cnc2ccccc21)Nc1cccc2c1C(=O)c1ccccc1C2=O | inconclusive: 2.51 µM [inhibitor, full curve, poor fit] |
| C/C=C/C=C\C(=O)Nc1cccc(C2=NOC3(C2)C[C@@H](C(N)=O)N(C(=O)c2cc([N+](=O)[O-])cc([N+](=O)[O-])c2)C3)c1 (stereo partly specified) | inactive |
| CCC(=O)N1CCc2cc(S(=O)(=O)CCC(=O)Nc3ccc(Cl)c(C(F)(F)F)c3)ccc21 | inactive |
